# Reference: US9249147B2, “Tyrosine kinase inhibitors” (CHEMBRIDGE CORPORATION, priority 2008, dated 2016)
# What was measured:
# HepG2 = test: Cytotoxicity panel in HepG2 (Cerep ADMET study 13170); format: cell-based, human; conditions: for Membrane permeability % Effect (relative to controls), Mean / Mitochondrial Membrane Potential % Effect (relative to controls), Mean / Nuclear size % Effect (relative to controls), Mean / Membrane permeability % Effect (relative to controls), 1st/2nd/3rd / Mitochondrial Membrane Potential % Effect (relative to controls), 1st/2nd/3rd / Nuclear size % Effect (relative to controls), 1st/2nd/3rd / Cell Number % Effect (relative to controls), 1st/2nd/3rd: HepG2; for Membrane permeability % Effect (relative to controls), Mean: % increase; for Mitochondrial Membrane Potential % Effect (relative to controls), Mean / Nuclear size % Effect (relative to controls), Mean / Cell Number % Effect (relative to controls), Mean: % inhibition; for Membrane permeability % Effect (relative to controls), 1st/2nd/3rd / Mitochondrial Membrane Potential % Effect (relative to controls), 1st/2nd/3rd / Nuclear size % Effect (relative to controls), 1st/2nd/3rd / Cell Number % Effect (relative to controls), 1st/2nd/3rd: individual replicates, listed as CRL241; for Cell Number % Effect (relative to controls), Mean: HepG2, 72 hours
# Description: In addition to the above proliferation inhibition experiments, compound (II) was tested for cytotoxicity at Cerep (ADMET study 13170) with human hepatocellular carcinoma cell line HepG2. Several cellular parameters, such as nuclear size, mitochondrial membrane potential, intracellular free calcium, membrane permeability and cell numbers were measured during this study to evaluate cytotoxicity at 0.5, 5 and 20 μM compound concentrations.
# Raw data will be expressed as % of effect (either inhibition or increase) relative to the untreated control cells. The data will also be normalized using the reference compound (cerivastatin), whose maximum effect will be considered “100% effect.” The reference compound will also be used to define the top and bottom of the dose-response curve, if one is calculated. […] The results include the following end points:
# Nuclear Size: expressed as % inhibition relative to control values.
# Mitochondrial Membrance Potential: expressed as % inhibition relative to control values.
# Intracellular Free Calcium: expressed as % increase relative to control values.
# Membrance permeability: expressed as % increase relative to control values.
# Cell Numbers: expressed as % inhibition relative to control values.
# CYP2C19 = target: T1, CYP2C19 (Homo sapiens, UniProt P33261); test: CYP2C19 Inhibition (recombinant, CEC substrate); format: in vitro ADME; conditions: human, recombinant CYP2C19, probe CEC, Table 5B individual results, read-out: CYP2C19 % Inhibition of Control Values, 1st/2nd/3rd
# T1 construct: purchased Cerep (contract assay, ADMET Study 13170)
# CYP3A4 = target: T2, CYP3A4 (Homo sapiens, UniProt P08684); test: CYP3A4 Inhibition (recombinant, BFC substrate); format: in vitro ADME; conditions: human, recombinant CYP3A4, probe BFC, Table 5B individual results, read-out: CYP3A4 % Inhibition of Control Values, 1st/2nd/3rd
# T2 construct: purchased Cerep (contract assay, ADMET Study 13170)
# hERG = hERG (Homo sapiens, UniProt Q12809); test: hERG Qpatch 16 automated whole-cell patch clamp in CHO-K1 (Cerep hERG Study 13292); format: cell-based; conditions: listed as CRL-241; for % Inhibition of Tail current, individual data: 1st/2nd (Table 6D also 3rd)
# Description: The cardiac potassium channel, hERG, is responsible for the rapid delayed rectifier current (IKr) in the human ventricle. Inhibition of IKr is the most common cause of cardiac action potential prolongation by noncardiac drugs. Increased action potential duration causes prolongation of the QT interval that has been associated with a dangerous ventricular arrhythmia, torsade de pointer.
# Compound (II) was initially tested at 1 μM concentration using a standard patch clamp protocol (Cerep ADMET Study 13170). The hERG channel was expressed in a human embryonic kidney (HEK293) cell line that lacks endogenous hERG channels. […] We have retested compound (II) in hERG assay in a range of lower concentrations to estimate IC50 of hERG inhibition more precisely (Qpatch 16 automated whole-cell patch clamp protocol in CHO-K1 cell line stably expressing hERG, Cerep hERG Study 13292). […] This kind of potency in hERG inhibition should not represent a significant clinical problem since the high degree of hERG inhibition would occur only at the compound concentrations above the expected therapeutic levels.
# Sequence of UniProt Q12809 (Q12809 whole entry): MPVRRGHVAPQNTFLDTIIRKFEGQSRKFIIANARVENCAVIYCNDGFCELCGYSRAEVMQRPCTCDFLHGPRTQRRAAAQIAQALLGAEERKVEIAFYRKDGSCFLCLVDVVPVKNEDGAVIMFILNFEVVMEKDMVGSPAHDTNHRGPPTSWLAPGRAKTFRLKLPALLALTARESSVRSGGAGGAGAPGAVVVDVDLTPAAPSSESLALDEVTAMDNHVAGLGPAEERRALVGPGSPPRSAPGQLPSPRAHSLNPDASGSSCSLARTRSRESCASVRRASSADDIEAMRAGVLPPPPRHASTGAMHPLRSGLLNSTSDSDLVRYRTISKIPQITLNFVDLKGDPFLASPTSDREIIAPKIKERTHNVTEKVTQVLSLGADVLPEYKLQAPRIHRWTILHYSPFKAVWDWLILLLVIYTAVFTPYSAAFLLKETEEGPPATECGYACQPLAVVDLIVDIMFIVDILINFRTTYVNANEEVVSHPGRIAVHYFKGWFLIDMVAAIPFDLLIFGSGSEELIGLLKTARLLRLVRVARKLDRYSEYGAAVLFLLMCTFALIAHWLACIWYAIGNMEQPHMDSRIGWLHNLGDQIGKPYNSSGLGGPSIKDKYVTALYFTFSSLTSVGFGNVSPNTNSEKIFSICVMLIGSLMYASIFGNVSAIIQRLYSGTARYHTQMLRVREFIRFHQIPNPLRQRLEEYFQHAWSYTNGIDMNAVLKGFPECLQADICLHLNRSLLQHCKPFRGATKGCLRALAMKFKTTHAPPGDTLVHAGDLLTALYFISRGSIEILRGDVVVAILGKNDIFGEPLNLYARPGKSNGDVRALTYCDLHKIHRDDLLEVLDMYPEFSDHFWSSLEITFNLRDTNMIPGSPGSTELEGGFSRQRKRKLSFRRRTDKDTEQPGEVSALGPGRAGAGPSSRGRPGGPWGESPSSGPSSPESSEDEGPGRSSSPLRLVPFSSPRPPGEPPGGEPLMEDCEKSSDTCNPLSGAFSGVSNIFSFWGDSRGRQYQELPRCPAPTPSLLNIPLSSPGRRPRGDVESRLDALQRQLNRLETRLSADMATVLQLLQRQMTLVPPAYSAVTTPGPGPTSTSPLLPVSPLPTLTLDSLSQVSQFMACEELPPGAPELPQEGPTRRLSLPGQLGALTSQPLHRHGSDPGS
# T2 sequence (P08684 whole entry): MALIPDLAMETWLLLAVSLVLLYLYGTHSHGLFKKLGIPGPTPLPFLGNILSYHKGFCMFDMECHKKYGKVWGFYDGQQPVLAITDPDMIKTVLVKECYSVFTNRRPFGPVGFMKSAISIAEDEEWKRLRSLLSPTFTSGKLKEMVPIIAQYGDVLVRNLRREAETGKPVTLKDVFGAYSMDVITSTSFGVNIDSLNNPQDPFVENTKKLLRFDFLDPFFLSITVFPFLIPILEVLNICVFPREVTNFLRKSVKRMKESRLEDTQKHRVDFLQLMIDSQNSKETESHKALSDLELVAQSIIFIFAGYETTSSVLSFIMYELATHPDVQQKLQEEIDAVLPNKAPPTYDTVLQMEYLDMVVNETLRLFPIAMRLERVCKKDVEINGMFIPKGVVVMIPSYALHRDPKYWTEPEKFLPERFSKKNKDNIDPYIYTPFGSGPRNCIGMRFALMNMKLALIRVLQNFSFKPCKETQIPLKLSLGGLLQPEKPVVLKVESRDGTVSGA
# T1 sequence (P33261 whole entry): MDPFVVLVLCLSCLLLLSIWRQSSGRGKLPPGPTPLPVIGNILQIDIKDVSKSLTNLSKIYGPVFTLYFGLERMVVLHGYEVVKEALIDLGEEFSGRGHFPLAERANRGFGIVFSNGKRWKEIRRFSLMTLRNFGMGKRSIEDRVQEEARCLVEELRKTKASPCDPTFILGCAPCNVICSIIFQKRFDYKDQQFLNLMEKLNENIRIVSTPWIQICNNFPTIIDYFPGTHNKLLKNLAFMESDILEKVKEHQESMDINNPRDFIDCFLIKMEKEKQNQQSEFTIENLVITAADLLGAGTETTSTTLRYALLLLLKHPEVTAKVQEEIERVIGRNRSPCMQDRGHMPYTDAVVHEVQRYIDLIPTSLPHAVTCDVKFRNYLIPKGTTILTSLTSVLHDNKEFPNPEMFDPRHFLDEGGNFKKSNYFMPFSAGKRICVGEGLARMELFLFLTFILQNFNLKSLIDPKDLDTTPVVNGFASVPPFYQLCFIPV
structure (smiles),measurement,setting,value
Cc1ccc(F)cc1C[C@H](C)Nc1cc[nH]c(=O)c1-c1nc2cc3c(cc2[nH]1)C(=O)N(CCN1CCCC1)C3 [compound (II)],"Membrane permeability % Effect (relative to controls), Mean",HepG2; 2.0E−05 M,145%
same,"Mitochondrial Membrane Potential % Effect (relative to controls), Mean",HepG2; 2.0E−05 M,101%
same,"Nuclear size % Effect (relative to controls), Mean",HepG2; 2.0E−05 M,55%
same,"Membrane permeability % Effect (relative to controls), 1st/2nd/3rd",HepG2; 2.0E−05 M,151.4% and 149.2% and 134.1%
same,"Mitochondrial Membrane Potential % Effect (relative to controls), 1st/2nd/3rd",HepG2; 2.0E−05 M,100.5% (2×) and 100.6%
same,"Nuclear size % Effect (relative to controls), 1st/2nd/3rd",HepG2; 2.0E−05 M,55.6% and 54.2% and 55.9%
same,"Cell Number % Effect (relative to controls), Mean",HepG2; 5.0E−06 M,72%
same,"Membrane permeability % Effect (relative to controls), Mean",HepG2; 5.0E−06 M,205%
same,"Mitochondrial Membrane Potential % Effect (relative to controls), Mean",HepG2; 5.0E−06 M,100%
same,"Nuclear size % Effect (relative to controls), Mean",HepG2; 5.0E−06 M,91%
same,"Cell Number % Effect (relative to controls), 1st/2nd/3rd",HepG2; 5.0E−06 M,68.1% and 72.2% and 74.5%
same,"Membrane permeability % Effect (relative to controls), 1st/2nd/3rd",HepG2; 5.0E−06 M,203.0% and 221.0% and 191.2%
same,"Mitochondrial Membrane Potential % Effect (relative to controls), 1st/2nd/3rd",HepG2; 5.0E−06 M,100.1% (2×) and 100.5%
same,"Nuclear size % Effect (relative to controls), 1st/2nd/3rd",HepG2; 5.0E−06 M,91.7% (2×) and 88.6%
same,"Cell Number % Effect (relative to controls), Mean",HepG2; 5.0E−07 M,−7%
same,"Membrane permeability % Effect (relative to controls), Mean",HepG2; 5.0E−07 M,1%
same,"Mitochondrial Membrane Potential % Effect (relative to controls), Mean",HepG2; 5.0E−07 M,9%
same,"Cell Number % Effect (relative to controls), 1st/2nd/3rd",HepG2; 5.0E−07 M,3.6% and −13.2% and −10.9%
same,"Membrane permeability % Effect (relative to controls), 1st/2nd/3rd",HepG2; 5.0E−07 M,2.0% and 1.5% and 0.7%
same,activity at 1 µM,CYP2C19; 1.0E−06 M,19.5%
same,activity at 5 µM,CYP2C19; 5.0E−06 M,9.5%
same,activity at 1 µM,CYP3A4; 1.0E−06 M,53.7%
same,activity at 5 µM,CYP3A4; 5.0E−06 M,4.6%
same,% Inhibition of Tail current (mean),"hERG; 1.0E−07 M (100 nM), CHO-K1, automated patch clamp",28.0%
same,"% Inhibition of Tail current, individual data",hERG; 1.0E−07 M,28.1% and 27.9% and 28.0%
same,"% Inhibition of Tail current, individual data",hERG; 2.5E−08 M,24.5% and 20.6% and 22.5%
same,"% Inhibition of Tail current, individual data",hERG; 5.0E−07 M,40.3% and 36.6% and 38.5%

# Where “and” joins values, the source holds several entries; their conditions need not be identical. Equal entries are not always repeated.
